# Reference: PubChem BioAssay AID686971 (National Center for Advancing Translational Sciences (NCATS), 2013)
# In all, about 360,000 compounds went through this assay and about 7,500 (2.1%) were called active. The shares of active, inactive and inconclusive entries below differ from those in the screen. The call rests on the fitted dose curve; in most records, active means well fitted cell-killing curve with a large enough effect; inconclusive means small, poorly fitted or top-dose-only effect, or effect the other way, or another doubt; inactive means no such curve, though single readings can be large or run the other way. Potencies of inconclusive entries are left out as doubtful fits.
# Test: qHTS for induction of synthetic lethality in tumor cells producing 2HG: qHTS for the HT-1080-IDH1KD cell line;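 on activity, negative = toxicity: 0% = DMSO wells and -100% = cell-free medium wells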
# Details: HT-1080 IDH1 knockdown viability, ATP luminescence, 48 h; activity, negative = toxicity: at 46.1 µM (top of the series) unless noted
# Outline: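 In this qHTS, HT-1080 cells depleted of IDH1 are exposed for 48 h at 37 °C to compound titrations. Toxicity is scored from CellTiter-Glo luminescence, with DMSO as full viability and medium alone as none.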
# Potency means the concentration at half of the fitted maximal effect; tags describe the fitted curve by direction and shape.
Structure (SMILES),Potency,"activity, negative = toxicity"
CC(=O)c1ccc(C(=O)N2CCC(CO)(Cc3cccc(C(F)(F)F)c3)CC2)cc1,"inconclusive [cytotoxic, single point]",
COc1cc(OC)c(OC)cc1/C=C1\Oc2cc(OS(C)(=O)=O)ccc2C1=O,"inconclusive [rising, single point]",
CC(=O)N[C@H]1[C@H]([C@H](O)[C@H](O)CO)O[C@](O)(C(=O)O)C[C@@H]1O,,inactive: 4.29%
COc1ccc(OC(F)(F)F)cc1CC1(C)C(=O)Nc2c(Cl)ccc(Cl)c21 (configuration not stated),"inconclusive [cytotoxic, single point]",
NCCNc1ccc(C(=O)N2c3ccccc3Sc3ccccc32)cc1[N+](=O)[O-],active: 16.4 µM,
CC1CCN(CCCCOc2ccccc2-c2ccccc2)CC1,"inconclusive [cytotoxic, single point]",
CCC(=O)N1CCCc2cc(S(=O)(=O)N3CCCc4ccccc43)ccc21,"inconclusive [cytotoxic, partial curve]",
CSC1=NCCN1C(=O)c1c(-c2c(F)cccc2Cl)noc1C,,inactive: 18.3%
CC(C)NC(=O)CSc1nnc(-c2ccc(C(C)(C)C)cc2)n1C,,inactive: -22.2%
Cc1cc(C)n(-c2nc(NCc3cccnc3)c3c4c(sc3n2)COC(C)(C)C4)n1,active: 23.1 µM,
Fc1ccccc1/C=N/Nc1ccc(Cl)nn1,"inconclusive [rising, single point]",
Cn1c(-c2c(N)n(CCc3ccccc3)c3nc4ccccc4nc23)nc2ccccc21,"inconclusive [cytotoxic, single point]",
O=C(NCc1ccccc1)C1c2ccccc2OCC(=O)N1Cc1ccccc1 (configuration not stated),"inconclusive [cytotoxic, full curve, poor fit]",
CC1(C)CC(=O)C=C(NNC(=O)c2ccccc2O)C1,"inconclusive [cytotoxic, single point]",
O=C1C=C(c2ccc3ncccc3c2)C[C@@H](c2ccc3c(c2)OCO3)C1,active: 8.2 µM,
O=C(OCCc1ccccn1)c1cccc([N+](=O)[O-])c1,,inactive: 7.36%
CS(=O)(=O)Nc1ccc(C(=O)NCCc2ccccc2)cc1,"inconclusive [cytotoxic, single point]",
CNC(=O)/C(=C\c1ccc2c(c1)OCO2)NC(=O)c1ccc(Br)cc1,,inactive: 2.1%
COc1ccccc1-n1c(-c2ccccc2)c[n+]2c1CCc1ccccc1-2,active: 13 µM,
C1CCc2c(c(N3CCOCC3)nc3sc4c(N5CCOCC5)nnnc4c23)C1,,inactive: 22.8%
Cc1ccc(NC(=O)CN2C(=O)C(C)Oc3ccccc32)nc1 (configuration not stated),"inconclusive [cytotoxic, single point]",
c1csc(CNc2ncnc3sccc23)c1,active: 25.9 µM,
CC(C)Oc1ccc(CN2CCC2(C)C(=O)Nc2cccc3cccnc23)cc1 (configuration not stated),"inconclusive [cytotoxic, single point]",
C=CCOc1ccc(CN(C)CC(O)COc2cccc3ccccc23)cc1 (configuration not stated),"inconclusive [cytotoxic, single point]",

Structure (SMILES),Potency,"activity, negative = toxicity"
C#CCOCCOCCOCCNc1nc(N2CCN(C(=O)CCCCCCCCCCNC(=O)[C@H]([C@@H](C)CC)n3cc(CCCCN=C(N)N)nn3)CC2)nc(N2CCN(C(=O)CCCCCCCCCCNC(=O)[C@H](CCCCN)n3cc(C)nn3)CC2)n1,"inconclusive [cytotoxic, single point]",
CC(C)N(Cc1nc(-c2ccc(Cl)cc2)no1)C(=O)C(c1ccccc1)c1ccccc1,,inactive: -23.6%
NC(=O)CCN1CCN(CCOC2Cc3cc(Cl)ccc3Sc3ccccc32)CC1 (configuration not stated),,inactive: -7.81%
CCCc1c(-c2cccc(F)c2)ncn1CCc1ccccc1OC,"inconclusive [cytotoxic, single point]",
CN(C)c1nc(SCc2ccc(Cl)cc2)nc2c1CCCC2,,inactive: -7.58%
COc1cccc(C(=O)N2CCN(C(=O)C3CCCO3)CC2)c1 (configuration not stated),,inactive: 14.1%
O=c1[nH]c2ccccc2c(O)c1O,"inconclusive [cytotoxic, single point]",
Cc1cc(C)c(C)c(S(=O)(=O)N2CCN(c3ncnc4ccccc34)CC2)c1C,active: 23.1 µM,
COc1ccc(Cl)cc1Cn1c(C)c(C(=O)NCc2cccc([N+](=O)[O-])c2)sc1=O,,inactive: 1.66%
Cc1cccc(S(=O)(=O)NCCc2ccccc2)c1,,inactive: 1.67%
Nc1c(C(=O)Nc2ccc3c(c2)OCCO3)nnn1Cc1cccc(Cl)c1,"inconclusive [cytotoxic, partial curve]",
CCn1c2ccccc2c2cc(NC(=O)c3ccco3)ccc21,"inconclusive [cytotoxic, single point]",
COc1ccccc1C(=O)NC(=S)NNC(=O)c1sc2ccccc2c1Cl,"inconclusive [cytotoxic, single point]",
Cc1ccc(P(=O)(c2ccc(C)cc2)[C@@H](NC(c2ccccc2)c2ccccc2)c2ccccc2)cc1,active: 16.4 µM,
CCOC(=O)[C@]12CCCC=C1N(Cc1ccc(Cl)cc1Cl)C(=O)[C@H](CC(=O)NCc1cccc(C(F)(F)F)c1)C2,"inconclusive [cytotoxic, single point]",
CC(C)Oc1nc(-c2ccccc2Cl)nc2ccccc12,"inconclusive [cytotoxic, single point]",
O=C(Nc1ccncc1)Nc1cccc(Cl)c1Cl,,inactive: -21.3%
Clc1ccc2nnnc(-c3ccccc3)c2c1,"inconclusive [cytotoxic, full curve]",
COc1cc(/C=C2\SC(=S)N(CCC(=O)N3CCCCC3)C2=O)cc(OC)c1OC,"inconclusive [cytotoxic, partial curve]",
Nc1nc(Nc2ccccc2F)nc(NC2CCCCC2)c1[N+](=O)[O-],active: 18.4 µM,
Cc1cccc(C(=O)N2[C@@H](C(C)C)COc3cc(Br)ccc3S2(=O)=O)c1,"inconclusive [cytotoxic, single point]",
NC(=O)C1(Nc2ccc(-c3ccc(Br)cc3)cc2)CCCC1,,inactive: -27.4%
CN1CCC(Oc2ccccc2Sc2ccc(C(F)(F)F)cc2)CC1,,inactive: -5.16%
N#C/C(=C\c1cccs1)c1nc2ccccc2[nH]1,"inconclusive [cytotoxic, single point]",

Structure (SMILES),Potency,"activity, negative = toxicity"
N#C/C(=C\c1cccc2ccccc12)c1nn(-c2ccccc2)c(N)c1C#N,"inconclusive [cytotoxic, single point]",
CCOC(=O)N1CCN(C(=O)CSCC(=O)Nc2nc(-c3ccc(OC)cc3)cs2)CC1,,inactive: -21.2%
Cc1[nH]c2ccccc2c1/C=N/Nc1nc(Nc2ccccc2)nc(N2CCOCC2)n1,"inconclusive [cytotoxic, single point]",
CN1CCCC1(C)C(=O)Nc1ccc(-n2cccc2)cc1 (configuration not stated),,inconclusive: 30.3%
O=c1cc(N2CCN(c3ccccc3)CC2)[nH]c(=O)n1-c1ccccc1Cl,"inconclusive [cytotoxic, single point]",
CC(C)C[C@H]1CNC(=S)N1C[C@H]1CCCN1C[C@H](Cc1ccccc1)N1C[C@H](Cc2ccc(O)cc2)N(CC2CCCCCC2)C1=S,active: 14.6 µM,
Cc1ccc(NC(=O)C2CCN(S(=O)(=O)c3cccc4nonc34)CC2)nc1,,inactive: -4.35%
COc1ccc(NC2=CC(c3ccccc3)N(c3ccc(OC)cc3)C2=O)cc1 (configuration not stated),"inconclusive [cytotoxic, single point]",
COc1ccccc1C1CCN(Cc2cccc3ccccc23)CC1,"inconclusive [cytotoxic, partial curve]",
Cc1ccc(OCCCCn2c(CO)nc3ccccc32)cc1,,inconclusive: -32.1% [cytotoxic]
COc1ccc(-c2nc3cnccn3c2NC(C)(C)CC(C)(C)C)cc1O,"inconclusive [cytotoxic, single point]",
Cc1cc(C)nc(SCC(=O)NC2=NN=C(c3ccc(Br)cc3)CS2)n1,active: 15.8 µM,
Clc1ccc(/C=N/Nc2nnc(-c3ncc[nH]3)c3ccccc23)cc1,"inconclusive [cytotoxic, single point]",
Cc1nn2c(-n3ccnc3)c3c(nc2c1-c1ccccc1)CCC3,,inactive: 1.44%
CCOC(=O)c1ccc(NC(=S)N2CCSC2c2c(F)cc(F)cc2F)cc1 (configuration not stated),,inactive: -7.21%
COc1ccc(N=C2CCS(=O)(=O)c3sccc32)cc1,"inconclusive [cytotoxic, partial curve]",
Cc1cccc(C)c1NC(=O)C(Cl)=C(Cl)Cl,"inconclusive [cytotoxic, partial curve]",
COc1ccc(NC(=O)C2(C)Cc3c(-c4ccc(N(C)C)cc4)ccnc3O2)cc1 (configuration not stated),"inconclusive [cytotoxic, single point]",
COc1ccccc1/C=C/C(=O)/C=C/c1ccccc1O,active: 5.8 µM,
O=CNCCCc1nc2ccccc2n1Cc1cccc2ccccc12,"inconclusive [cytotoxic, single point]",
C/C(N)=C(/C#N)C(=O)CSc1nn(-c2ccc(Cl)cc2)c(=S)s1,,inactive: -10.5%
Cc1ccc(N2C(=O)c3sc4nnc(C)c(=O)n4c3C2=O)cc1,,inactive: 17.4%
COc1ccc(C2CC(c3c(-c4ccccc4)c4cc(Cl)ccc4[nH]c3=O)=NN2C(=O)CCC(=O)O)cc1 (configuration not stated),"inconclusive [cytotoxic, single point]",
Cn1c(=O)[nH]c(=O)c2c1nc(Br)n2CCCSc1nc2ccccc2o1,"inconclusive [cytotoxic, single point]",
